Values marked as one replicate rest on one cluster of the flow cell; about a third of the high ones do not repeat.
Each sequence was assayed on ATP (assay: switch fluorescence ratio, 500 uM ATP over buffer (Cy3 cluster intensity, sum of 5 cycles each) (fold (ratio)); higher = stronger signal-on switching upon ATP binding; sequences stand for … in TCGTCGGCAGCGTCAGATGTGTATAAGAGACAGTTTTTTTTTTTTTTTTTTTTTTTTT…TC). Settings: aptamer strand: ATP DNA aptamer (quencher-CACCTGGGGGAGTATTGCGGAGGAAGG + anchor), 100 nM annealed; ATP concentration: 500 uM; one replicate.
In short: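 For every switch-domain sequence, the fluorescence ratio is the mean of per-cluster values, each being summed target-cycle Cy3 intensity over summed buffer-cycle Cy3 intensity. Clusters outside 100-1000 RFU were excluded. On a modified Illumina MiSeq flow-cell, the Cy3-labelled switching-strand clusters were annealed to 100 nM quencher-labelled ATP aptamer, imaged in selection buffer and then after 15 min with 500 uM ATP at 22 °C. Five such cycles were run, with NaOH stripping and re-annealing between them.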
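Also: ATP exposure 15 min at 22 °C before imaging.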

| Sequence | switch fluorescence ratio |
| --- | --- |
| ATAGGGCGCG | 1.05 |
| ATAGGGGTCT | 1 |
| ATAGGTAGCT | 0.992 |
| ATAGTACAAC | 1 |
| ATAGTACACT | 1.02 |
| ATAGTACGTC | 1.07 |
| ATAGTAGAGT | 0.998 |
| ATAGTAGCTC | 0.985 |
| ATAGTATGCT | 1.06 |
| ATAGTCCTGT | 0.999 |
| ATAGTCGGGT | 1.05 |
| ATAGTCTCTG | 1.06 |
| ATAGTGACTG | 1.05 |
| ATAGTGTCCA | 0.976 |
| ATAGTTAATT | 0.986 |
| ATAGTTATGA | 1.04 |
| ATAGTTGT | 0.944 |
| ATAGTTGTTG | 1.01 |
| ATAGTTTAGC | 0.989 |
| ATAGTTTCTT | 0.974 |
| ATATAAAAGT | 1.02 |
| ATATAACCTT | 1.74 |
| ATATACGGAG | 1 |
| ATATACGT | 0.999 |
| ATATACGTGG | 0.982 |

| Sequence | switch fluorescence ratio |
| --- | --- |
| ATATACTAAA | 1.05 |
| ATATACTAGG | 1.01 |
| ATATACTGCG | 1.04 |
| ATATAGGACC | 1.02 |
| ATATATAGAG | 0.912 |
| ATATATGCTA | 1.03 |
| ATATCACTGG | 0.98 |
| ATATCAGAAA | 1.03 |
| ATATCAGTAG | 0.983 |
| ATATCATACG | 1.04 |
| ATATCCAACG | 0.988 |
| ATATCGTTGG | 0.963 |
| ATATCTAAAA | 0.995 |
| ATATCTAGAG | 0.951 |
| ATATCTGTCG | 0.967 |
| ATATGAAGTT | 1.02 |
| ATATGACGAT | 1.05 |
| ATATGACGGA | 1.01 |
| ATATGATGAA | 0.962 |
| ATATGCGATT | 1 |
| ATATGGCAGT | 0.932 |
| ATATGGGATT | 1 |
| ATATGGTTGC | 1.03 |
| ATATGTGTG | 0.908 |
| ATATGTTACG | 1.06 |

| Sequence | switch fluorescence ratio |
| --- | --- |
| ATATTACTAT | 1.02 |
| ATATTCGTAG | 0.96 |
| ATATTCTAAG | 0.997 |
| ATATTTAACG | 1.01 |
| ATATTTCAGT | 1.01 |
| ATATTTCTGA | 1.01 |
| ATATTTGATG | 1.01 |
| ATATTTGTGA | 0.959 |
| ATCAAACGTA | 1.09 |
| ATCAACGGAG | 1.01 |
| ATCAAGCGTA | 1.01 |
| ATCAAGGTAC | 1.12 |
| ATCAAGTAAG | 1.03 |
| ATCAAGTTTT | 0.999 |
| ATCAATAGCT | 0.982 |
| ATCACAGTTC | 1.06 |
| ATCACCATAC | 1.34 |
| ATCACCGGAT | 1.03 |
| ATCACGAGGC | 1.01 |
| ATCAGACCTA | 1.08 |
| ATCAGACGTG | 1 |
| ATCAGACTCC | 1.08 |
| ATCAGGCTGA | 0.986 |
| ATCAGGGTAG | 0.964 |
| ATCAGGTCTA | 0.992 |

| Sequence | switch fluorescence ratio |
| --- | --- |
| ATCAGGTTTA | 1 |
| ATCATAGGAA | 0.975 |
| ATCATATATT | 0.999 |
| ATCATATTCT | 1.03 |
| ATCATCAGGC | 1 |
| ATCATCTTT | 0.979 |
| ATCATGCGG | 1 |
| ATCATGGGCG | 0.928 |
| ATCCAAAGAG | 1.01 |
| ATCCACTATC | 1.09 |
| ATCCAGCCTG | 0.973 |
| ATCCAGGCGG | 0.999 |
| ATCCATCTGG | 0.996 |
| ATCCATTAC | 1.14 |
| ATCCCATACC | 1.15 |
| ATCCCGACCG | 1.11 |
| ATCCCGTGAA | 1.05 |
| ATCCCTCTGT | 1.01 |
| ATCCCTTGCT | 1.14 |
| ATCCGACAGG | 1.09 |
| ATCCGACCTG | 0.979 |
| ATCCGAGTTT | 1.01 |
| ATCCGATATC | 1.87 |
| ATCCGGCGTG | 0.978 |
| ATCCGGCTGC | 1.11 |
